We go through 31 molecules from PMC9911399, “Two distinct binding modes provide the RNA-binding protein RbFox with extraordinary sequence specificity”.

Changes are numbered by the printed parent chain; changes in the protein carry UniProt numbers. Some of the results follow.

To fix the notation:
T1: RBFOX1 RRM (Homo sapiens, UniProt Q9NWB1 109-208)
T1 sequence: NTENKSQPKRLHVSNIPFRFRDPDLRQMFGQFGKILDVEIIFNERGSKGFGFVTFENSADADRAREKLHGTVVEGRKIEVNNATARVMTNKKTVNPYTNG

B1: AGAAGGA (DNA:RNA)
RNA: GGGAGACCGGAAUUCAGAUUGUCCAGAAGGAUUAAAUCCCGUCGUAGCCACCA
DNA 1: CAATCTGAATTCCGGTCTCCC
DNA 2: TGGTGGCTACGACGGGATT
B2: ACAUACC (DNA:RNA)
RNA: B1 RNA with G26C, A28U, G29A, G30C, A31C
DNA 1: CAATCTGAATTCCGGTCTCCC
DNA 2: TGGTGGCTACGACGGGATT
B3: AUAGCAG (DNA:RNA)
RNA: B1 RNA with G26U, A28G, G29C, G30A, A31G
DNA 1: CAATCTGAATTCCGGTCTCCC
DNA 2: TGGTGGCTACGACGGGATT
B4: GCAUUUU (DNA:RNA)
RNA: B1 RNA with A25G, G26C, A28U, G29U, G30U, A31U
DNA 1: CAATCTGAATTCCGGTCTCCC
DNA 2: TGGTGGCTACGACGGGATT
B5: AGGGCAU (DNA:RNA)
RNA: B1 RNA with A27G, A28G, G29C, G30A, A31U
DNA 1: CAATCTGAATTCCGGTCTCCC
DNA 2: TGGTGGCTACGACGGGATT
B6: GACAUGA (DNA:RNA)
RNA: B1 RNA with A25G, G26A, A27C, G29U
DNA 1: CAATCTGAATTCCGGTCTCCC
DNA 2: TGGTGGCTACGACGGGATT
B7: CCUAAGU (DNA:RNA)
RNA: B1 RNA with A25C, G26C, A27U, G29A, A31U
DNA 1: CAATCTGAATTCCGGTCTCCC
DNA 2: TGGTGGCTACGACGGGATT
B8: AUCUCGC (DNA:RNA)
RNA: B1 RNA with G26U, A27C, A28U, G29C, A31C
DNA 1: CAATCTGAATTCCGGTCTCCC
DNA 2: TGGTGGCTACGACGGGATT
B9: CUCUCCA (DNA:RNA)
RNA: B1 RNA with A25C, G26U, A27C, A28U, G29C, G30C
DNA 1: CAATCTGAATTCCGGTCTCCC
DNA 2: TGGTGGCTACGACGGGATT
B10: UUCUUCU (DNA:RNA)
RNA: GGGAGACCGGAAUUCAGAUUGUCCUUCUUCUUUAAAUCCCGUCGUAGCCACCA
DNA 1: CAATCTGAATTCCGGTCTCCC
DNA 2: TGGTGGCTACGACGGGATT
B11: GGCAGUC (DNA:RNA)
RNA: B1 RNA with A25G, A27C, G30U, A31C
DNA 1: CAATCTGAATTCCGGTCTCCC
DNA 2: TGGTGGCTACGACGGGATT
B12: CACAAGU (DNA:RNA)
RNA: B1 RNA with A25C, G26A, A27C, G29A, A31U
DNA 1: CAATCTGAATTCCGGTCTCCC
DNA 2: TGGTGGCTACGACGGGATT
B13: AGCUCCG (DNA:RNA)
RNA: B10 RNA with U25A, U26G, U29C, U31G
DNA 1: CAATCTGAATTCCGGTCTCCC
DNA 2: TGGTGGCTACGACGGGATT
B14: CUGCUCA (DNA:RNA)
RNA: B10 RNA with U25C, C27G, U28C, U31A
DNA 1: CAATCTGAATTCCGGTCTCCC
DNA 2: TGGTGGCTACGACGGGATT
B15: CUCGGUA (DNA:RNA)
RNA: B1 RNA with A25C, G26U, A27C, A28G, G30U
DNA 1: CAATCTGAATTCCGGTCTCCC
DNA 2: TGGTGGCTACGACGGGATT
B16: UCGAGGA (DNA:RNA)
RNA: B1 RNA with A25U, G26C, A27G
DNA 1: CAATCTGAATTCCGGTCTCCC
DNA 2: TGGTGGCTACGACGGGATT
B17: UUUGACC (DNA:RNA)
RNA: B10 RNA with C27U, U28G, U29A, U31C
DNA 1: CAATCTGAATTCCGGTCTCCC
DNA 2: TGGTGGCTACGACGGGATT
B18: CAACCCA (DNA:RNA)
RNA: B1 RNA with A25C, G26A, A28C, G29C, G30C
DNA 1: CAATCTGAATTCCGGTCTCCC
DNA 2: TGGTGGCTACGACGGGATT
B19: GGUGCGU (DNA:RNA)
RNA: B1 RNA with A25G, A27U, A28G, G29C, A31U
DNA 1: CAATCTGAATTCCGGTCTCCC
DNA 2: TGGTGGCTACGACGGGATT
B20: UUGCGAU (DNA:RNA)
RNA: B10 RNA with C27G, U28C, U29G, C30A
DNA 1: CAATCTGAATTCCGGTCTCCC
DNA 2: TGGTGGCTACGACGGGATT
B21: GCUUUAC (DNA:RNA)
RNA: B10 RNA with U25G, U26C, C27U, C30A, U31C
DNA 1: CAATCTGAATTCCGGTCTCCC
DNA 2: TGGTGGCTACGACGGGATT
B22: AAGCCCG (DNA:RNA)
RNA: B1 RNA with G26A, A27G, A28C, G29C, G30C, A31G
DNA 1: CAATCTGAATTCCGGTCTCCC
DNA 2: TGGTGGCTACGACGGGATT
B23: CCAGCAU (DNA:RNA)
RNA: B1 RNA with A25C, G26C, A28G, G29C, G30A, A31U
DNA 1: CAATCTGAATTCCGGTCTCCC
DNA 2: TGGTGGCTACGACGGGATT
B24: AAGAUAC (DNA:RNA)
RNA: B1 RNA with G26A, A27G, G29U, G30A, A31C
DNA 1: CAATCTGAATTCCGGTCTCCC
DNA 2: TGGTGGCTACGACGGGATT
B25: GAGACAU (DNA:RNA)
RNA: B1 RNA with A25G, G26A, A27G, G29C, G30A, A31U
DNA 1: CAATCTGAATTCCGGTCTCCC
DNA 2: TGGTGGCTACGACGGGATT
B26: UAGCGAC (DNA:RNA)
RNA: B1 RNA with A25U, G26A, A27G, A28C, G30A, A31C
DNA 1: CAATCTGAATTCCGGTCTCCC
DNA 2: TGGTGGCTACGACGGGATT
B27: UCAACUA (DNA:RNA)
RNA: B1 RNA with A25U, G26C, G29C, G30U
DNA 1: CAATCTGAATTCCGGTCTCCC
DNA 2: TGGTGGCTACGACGGGATT
B28: UGCUCGC (DNA:RNA)
RNA: B10 RNA with U26G, U29C, C30G, U31C
DNA 1: CAATCTGAATTCCGGTCTCCC
DNA 2: TGGTGGCTACGACGGGATT
B29: CAGACGG (DNA:RNA)
RNA: B1 RNA with A25C, G26A, A27G, G29C, A31G
DNA 1: CAATCTGAATTCCGGTCTCCC
DNA 2: TGGTGGCTACGACGGGATT
B30: UCAAAAG (DNA:RNA)
RNA: B1 RNA with A25U, G26C, G29A, G30A, A31G
DNA 1: CAATCTGAATTCCGGTCTCCC
DNA 2: TGGTGGCTACGACGGGATT
B31: GCGAUUA (DNA:RNA)
RNA: B1 RNA with A25G, G26C, A27G, G29U, G30U
DNA 1: CAATCTGAATTCCGGTCTCCC
DNA 2: TGGTGGCTACGACGGGATT

The assay concerns the target T1, RBFOX1 RRM. In words: EMSA; HiTS-Eq, 1 nM pool, 10 min; buffer printed only for the single-RNA assays: 10 mM Tris pH 7.5, 150 mM NaCl, 3.4 mM EDTA, 0.001% NP-40, 30 C. The conditions noted are these: tags: His6 N-terminal (pET28a); label: 5' 32P. Summed up: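 A pool of RNA with 7 randomized nucleotides, 5′-radiolabelled and with DNA-annealed flanks, was equilibrated at 1 nM for 10 min in 50 µL with purified RbFox RRM, wild type or mutant, across increasing protein concentrations. Free RNA was separated by 8% native PAGE, excised, reverse-transcribed, barcoded by PCR and sequenced. Relative association constants were obtained from read-count changes of each RNA species versus the control reaction and normalised to the cognate motif.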
For B1, the binding signal was 0.00514 KA relative to UGCAUGU.
In the case of B2, the binding signal was 0.000302 KA relative to UGCAUGU.
Consider B3, for which the binding signal was 0.00562 KA relative to UGCAUGU.
To B4 belongs 0.0088 KA relative to UGCAUGU.
To B5 belongs 0.0225 KA relative to UGCAUGU.
Consider B6, for which the binding signal is 0.0171 KA relative to UGCAUGU.
To B7 belongs 0.00428 KA relative to UGCAUGU; to B8, 0.0118 KA relative to UGCAUGU.
For the molecule B9, the binding signal was 0.000929 KA relative to UGCAUGU.
On to B10, for which the binding signal was 0.0107 KA relative to UGCAUGU.
As for B11, the binding signal was 0.0117 KA relative to UGCAUGU.
Consider B12, for which the binding signal is 0.00182 KA relative to UGCAUGU.
Consider B13, for which the binding signal is 0.00867 KA relative to UGCAUGU.
Turning to B14, the binding signal is 0.0126 KA relative to UGCAUGU.
Consider B15, for which the binding signal was 0.0114 KA relative to UGCAUGU.
Then B16, with 0.00503 KA relative to UGCAUGU.
As for B17, the binding signal was 0.0109 KA relative to UGCAUGU.
B18: the binding signal was 0.00256 KA relative to UGCAUGU.
Regarding B19, the binding signal is 0.0222 KA relative to UGCAUGU.
In the case of B20, the binding signal is 0.0151 KA relative to UGCAUGU.
For B21, the binding signal is 0.0086 KA relative to UGCAUGU.
Take B22: the binding signal was 0.00982 KA relative to UGCAUGU.
Consider B23, for which the binding signal is 0.00309 KA relative to UGCAUGU.
Then B24, with 0.00405 KA relative to UGCAUGU; and B25, with 0.00415 KA relative to UGCAUGU.
Take B26: the binding signal is 0.00297 KA relative to UGCAUGU.
As to B27, the binding signal was 0.00111 KA relative to UGCAUGU.
As to B28, the binding signal was 0.027 KA relative to UGCAUGU.
Regarding B29, the binding signal was 0.00484 KA relative to UGCAUGU.
Take B30: the binding signal is 0.00687 KA relative to UGCAUGU.
As to B31, the binding signal is 0.00768 KA relative to UGCAUGU.
